Reference: patent US20140107021A1 (priority 2010, published 2014)
At least one structure is not confirmed: it was looked up by name or label, or the drawing left a doubt.

Assays:
GLP-1 receptor = biological target: T1, GLP-1 receptor (Homo sapiens, UniProt P43220); assay: cAMP induction at the GLP-1 receptor (agonist activity), firefly luciferase reporter assay in HEK293 cells; type: cell-based; conditions: read-out: GLP-1 (EC50); Table 2
T1 construct: expressed in transfected cells; host or cells: HEK293
Text: (§1) HEK293 cells co-transfected with the receptor and luciferase gene linked to a cAMP responsive element were employed for the bioassay.
(§2) All EC50s and IC50s are reported in the following examples in nM, unless indicated otherwise.

glucagon receptor = glucagon receptor (Homo sapiens, UniProt P47871); conditions: read-out: Glucagon (EC50); Table 2; heterodimers, tested for inhibitory activity at the glucagon receptor
Text: as §1, §2

GIP receptor = biological target: T2, GIP receptor (Homo sapiens, UniProt P48546); assay: cAMP induction at the GIP receptor (agonist activity), luciferase reporter assay in HEK293 cells; type: cell-based; conditions: read-out: GIP (EC50); Table 2
T2 construct: expressed in transfected cells; host or cells: HEK293
T2 sequence (P48546 22-466): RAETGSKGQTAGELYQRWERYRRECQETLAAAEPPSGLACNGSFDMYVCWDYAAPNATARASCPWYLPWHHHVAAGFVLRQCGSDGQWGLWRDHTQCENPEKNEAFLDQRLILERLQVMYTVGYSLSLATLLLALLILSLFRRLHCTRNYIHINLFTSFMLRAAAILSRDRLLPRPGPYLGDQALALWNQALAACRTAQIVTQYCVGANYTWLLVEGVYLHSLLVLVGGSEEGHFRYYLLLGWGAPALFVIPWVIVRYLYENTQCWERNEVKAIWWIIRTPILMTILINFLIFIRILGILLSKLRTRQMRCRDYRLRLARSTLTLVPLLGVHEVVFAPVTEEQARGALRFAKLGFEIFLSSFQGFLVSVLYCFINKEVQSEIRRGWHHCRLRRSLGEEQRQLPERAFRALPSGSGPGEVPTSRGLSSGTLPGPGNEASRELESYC
Text: as §1, §2

T1 sequence (P43220 24-463): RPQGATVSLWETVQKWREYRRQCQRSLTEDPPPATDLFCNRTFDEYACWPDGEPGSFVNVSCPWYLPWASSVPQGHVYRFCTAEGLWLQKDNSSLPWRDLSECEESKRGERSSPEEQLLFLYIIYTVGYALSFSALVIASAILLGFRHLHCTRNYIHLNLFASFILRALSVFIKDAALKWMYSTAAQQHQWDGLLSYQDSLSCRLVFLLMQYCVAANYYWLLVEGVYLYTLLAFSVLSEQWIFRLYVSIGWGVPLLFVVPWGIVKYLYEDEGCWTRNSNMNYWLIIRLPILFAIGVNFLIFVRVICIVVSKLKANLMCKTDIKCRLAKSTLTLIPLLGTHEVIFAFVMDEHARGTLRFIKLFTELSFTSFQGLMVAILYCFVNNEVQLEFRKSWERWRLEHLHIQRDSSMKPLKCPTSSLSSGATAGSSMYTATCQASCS
glucagon receptor, sequence (P47871 26-477): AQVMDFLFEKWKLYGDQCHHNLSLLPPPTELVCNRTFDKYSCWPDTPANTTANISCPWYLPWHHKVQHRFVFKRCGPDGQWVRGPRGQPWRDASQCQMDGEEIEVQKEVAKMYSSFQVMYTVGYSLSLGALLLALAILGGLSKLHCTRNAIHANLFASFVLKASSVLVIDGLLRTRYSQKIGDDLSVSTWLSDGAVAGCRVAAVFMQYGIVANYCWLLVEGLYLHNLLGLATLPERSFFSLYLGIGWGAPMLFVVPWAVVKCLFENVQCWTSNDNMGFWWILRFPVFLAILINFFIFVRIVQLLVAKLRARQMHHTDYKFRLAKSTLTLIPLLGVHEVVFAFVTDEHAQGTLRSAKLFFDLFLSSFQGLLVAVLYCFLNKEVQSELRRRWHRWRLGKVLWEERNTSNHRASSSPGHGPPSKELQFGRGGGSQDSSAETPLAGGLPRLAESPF

Compound `CC[C@H](C)[C@H](NC(=O)[C@H](CO)NC(=O)[C@H](Cc1ccc(O)cc1)NC(=O)[C@H](CC(=O)O)NC(=O)[C@H](CO)NC(=O)[C@@H](NC(=O)[C@H](Cc1ccccc1)NC(=O)[C@@H](NC(=O)CNC(=O)[C@H](CCC(=O)O)NC(=O)C(C)(C)NC(=O)[C@H](C)N)[C@@H](C)O)[C@@H](C)O)C(=O)N[C@@H](Cc1ccc(O)cc1)C(=O)N[C@@H](CC(C)C)C(=O)N[C@@H](CC(=O)O)C(=O)N[C@@H](CCCCN)C(=O)N[C@@H](CCC(N)=O)C(=O)N[C@@H](C)C(=O)N[C@@H](C)C(=O)NC(C)(C)C(=O)N[C@@H](CCC(=O)O)C(=O)N[C@@H](Cc1ccccc1)C(=O)N[C@H](C(=O)N[C@@H](CC(N)=O)C(=O)N[C@@H](Cc1c[nH]c2ccccc12)C(=O)N[C@@H](CC(C)C)C(=O)N[C@@H](CC(C)C)C(=O)N[C@@H](C)C(=O)NCC(=O)NCC(=O)N1CCC[C@H]1C(=O)N[C@@H](CO)C(=O)N[C@@H](CO)C(=O)NCC(=O)N[C@@H](C)C(=O)N1CCC[C@H]1C(=O)N1CCC[C@H]1C(=O)N1CCC[C@H]1C(=O)N[C@@H](CO)C(=O)N[C@@H](CCCCNC(=O)CCNC(=O)CCN1C(=O)CC(SC[C@H](NC(=O)[C@@H](NC(=O)[C@H](Cc2ccccc2)NC(=O)[C@H](CC(=O)O)NC(=O)[C@H](CCC(N)=O)NC(=O)[C@H](C)NC(=O)[C@H](CCCNC(=N)N)NC(=O)[C@H](CCCNC(=N)N)NC(=O)[C@H](CO)NC(=O)[C@H](CC(=O)O)NC(=O)[C@H](CC(C)C)NC(=O)[C@H](Cc2ccc(O)cc2)NC(=O)[C@H](CCCCN)NC(=O)[C@H](CO)NC(=O)[C@H](Cc2ccc(O)cc2)NC(=O)[C@H](CCC(=O)O)NC(=O)[C@H](CO)NC(=O)[C@@H](NC(=O)[C@@H](O)Cc2ccccc2)[C@@H](C)O)C(C)C)C(=O)N[C@@H](Cc2c[nH]c3ccccc23)C(=O)N[C@@H](CC(C)C)C(=O)N[C@@H](CCSC)C(=O)N[C@@H](CC(N)=O)C(=O)N[C@H](C(N)=O)[C@@H](C)O)C1=O)C(N)=O)C(C)C` (stereo partly drawn) [Peptide A1-B2, PLA6, E9, C24 G(6-29)/GIP-GLP(1-40)-K40] has an EC50 (GLP-1 receptor) of 0.49 nM, an EC50 (glucagon receptor) of 164 nM and an EC50 (GIP receptor) of 8.18 nM.
